Consider eight molecules from patent US20190315864A1 (SUZHOU ALPHAMAB, published 2019).

The target in experiment [1] is T1, CTLA4-Fc fusion protein (human, biotinylated where used as CTLA4-Fc-Biotin (Examples 5.1-5.3)).
T1 construct: expressed in HEK293 cells; also called human CTLA4-Fc protein; CTLA4-Fc antigen protein
Kind of experiment: ELISA: plate coated with the antibody at 0.5 µg/well, CTLA4-Fc-Biotin titrated, SA-HRP, OD405; value is C of the 4-parameter fit in the table under the plot; x axis has no unit on the sheet, ng/mL by paragraph 218.

Experiment [2] concerns the target T1, CTLA4-Fc fusion protein. Kind of experiment: ELISA: plate coated with the Fc fusion protein at 0.5 µg/well, CTLA4-Fc-Biotin titrated, SA-HRP, OD405; value is C of the 4-parameter fit in the table under the plot; x axis has no unit on the sheet, ng/mL by paragraph 221. (In general: ELISA stands for enzyme-linked immunosorbent assay.)
Experiment [3] addresses T1, CTLA4-Fc fusion protein. Briefly: ELISA: plate coated with the Fc fusion protein at 0.5 µg/well, CTLA4-Fc-Biotin titrated, SA-HRP, OD405; symbols and unit (ng/mL) by paragraph 226, no legend on the sheet.
Experiment [4] addresses T2, fusion protein of CTLA4 and mouse Fc (human, UniProt P16410 36-161, limits assumed).
T2 construct: Analyte of the SPR experiment; also called recombinant human CTLA4
Briefly: SPR, BIAcore X100, antibody captured by anti-human Fc on CM5, CTLA4-mouse Fc as analyte, 25 C, 1:1 model. (In general: SPR reads the build-up and loss of mass on a sensor chip optically.)

In experiment [5] the target is T3, human PD1 on HEK293 cells (293-PD1-EGFP) (human, UniProt Q15116 25-288).
T3 construct: whole, on cells
Kind of experiment: flow cytometry on 293-PD1-EGFP cells, anti-hIg-PE [lower row, PD1]. (In flow cytometry, cells or beads pass a laser one at a time.)

For experiment [6], the target named is T4, human CD28 on HEK293 cells (293-CD28-EGFP) (human, UniProt P10747 19-220).
T4 construct: whole, on cells
Kind of experiment: flow cytometry on 293-CD28-EGFP cells, anti-hIg-PE [lower row, CD28].

Another experiment addresses T5, Monkey CTLA4-Fc protein (monkey).
T5 construct: Bought reagent
Kind of experiment: ELISA: monkey CTLA4-Fc coated at 0.5 µg/well, huC1v4-tet-Fc-Biotin titrated, SA-HRP, OD405; symbols by paragraph 238.

The target of experiment [7] is T1, CTLA4-Fc fusion protein. Briefly: ELISA: human CTLA4-Fc coated at 0.5 µg/well, huC1v4-tet-Fc-Biotin titrated, SA-HRP, OD405; symbols by paragraph 238.
T1 sequence (chain, as listed by the source limits assumed): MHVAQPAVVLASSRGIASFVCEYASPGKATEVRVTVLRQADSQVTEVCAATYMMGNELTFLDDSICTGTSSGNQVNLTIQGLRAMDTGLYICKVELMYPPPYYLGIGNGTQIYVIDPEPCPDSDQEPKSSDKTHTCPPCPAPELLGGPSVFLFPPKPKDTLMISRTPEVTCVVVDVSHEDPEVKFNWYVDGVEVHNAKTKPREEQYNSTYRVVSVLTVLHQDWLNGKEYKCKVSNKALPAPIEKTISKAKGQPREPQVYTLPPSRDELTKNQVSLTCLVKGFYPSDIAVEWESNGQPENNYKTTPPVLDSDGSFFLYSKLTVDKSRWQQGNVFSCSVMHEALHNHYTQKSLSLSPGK

T3 sequence (Q15116 25-288): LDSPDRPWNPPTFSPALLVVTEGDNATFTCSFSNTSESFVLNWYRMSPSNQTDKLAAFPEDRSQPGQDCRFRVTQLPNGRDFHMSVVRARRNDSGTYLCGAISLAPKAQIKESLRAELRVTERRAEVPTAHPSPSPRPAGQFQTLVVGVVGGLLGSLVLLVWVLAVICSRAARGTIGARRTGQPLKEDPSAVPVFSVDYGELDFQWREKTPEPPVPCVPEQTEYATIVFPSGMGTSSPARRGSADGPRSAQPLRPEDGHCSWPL
T2 sequence (P16410 36-161 limits assumed): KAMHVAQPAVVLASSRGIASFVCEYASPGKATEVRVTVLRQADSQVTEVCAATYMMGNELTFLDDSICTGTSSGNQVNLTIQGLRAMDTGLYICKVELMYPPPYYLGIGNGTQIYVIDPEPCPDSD

B1: huC27v3-LdFc (Fc fusion)
chain: QVQLVESGGGLVQPGGSLRLSCAASGYIYSAYCMGWFRQAPGKGLVGVAAISIGGGSTYYADSVKGRFTISRDNSKNTLYLQMNSLRAEDTAVYYCAADVIPTETCLGGSWSGPFGYWGQGTLVTVSS[omitted - human IgG1 Fc]
notes: Humanized VHH fused to human IgG1 Fc; bivalent homodimer
One may read the EC50 as the midpoint of the concentration-response curve. With B1, the concentration giving a half-maximal response (EC50) was 0.0682 µg/mL in the experiment with CTLA4-Fc fusion protein [1] and 0.0307 µg/mL with CTLA4-Fc fusion protein [2].

B2: huC1v4-Ld-Fc (Fc fusion)
chain: QVQLVESGGGLVQPGGSLRLSCAASGYIYSAYCMGWFRQAPGKGLEGVAAIYIGGGSTYYADSVKGRFTISRDNSKNTLYLQMNSLRAEDTAVYYCAADVIPTETCLGGSWSGPFGYWGQGTLVTVSS[omitted - human IgG1 Fc]
notes: Humanized VHH C1 variant 4 fused to human IgG1 Fc; bivalent homodimer; also called huC1v4-Fc; bivalent CTLA4 single domain antibody Fc fusion protein
In general, EC50 (read off the curve) refers to the concentration at which the effect is half-maximal. As for B2, the “EC50 (read off the curve)” value with CTLA4-Fc fusion protein [3] is about 80 ng/mL. The same molecule registered an EC50 with CTLA4-Fc fusion protein [2] of 0.0376 µg/mL.

B3: huC27v4-LdFc (Fc fusion)
chain: QVQLVESGGGLVQPGGSLRLSCAASGYIYSAYCMGWFRQAPGKGLEGVAAISIGGGSTYYADSVKGRFTISRDNSKNTLYLQMNSLRAEDTAVYYCAADVIPTETCLGGSWSGPFGYWGQGTLVTVSS[omitted - human IgG1 Fc]
notes: Humanized VHH fused to human IgG1 Fc; bivalent homodimer; also called humanized form of the Fc fusion protein of antibody No. C27, variant 4
In turn, B3 returned an EC50 with CTLA4-Fc fusion protein [1] of 0.0745 µg/mL.

B4: huC27v2-LdFc (Fc fusion)
chain: QVQLVESGGGLVQPGGSLRLSCAASGYIYSAYCMGWFRQAPGKERVGVAAISIGGGSTYYADSVKGRFTISRDNSKNTLYLQMNSLRAEDTAVYYCAADVIPTETCLGGSWSGPFGYWGQGTLVTVSS[omitted - human IgG1 Fc]
notes: Humanized VHH fused to human IgG1 Fc; bivalent homodimer; also called humanized form of the Fc fusion protein of antibody No. C27, variant 2
In the case of B4, the EC50 in the experiment with CTLA4-Fc fusion protein [1] amounted to 0.0774 µg/mL.

B5: huC27v1-LdFc (Fc fusion)
chain: QVQLVESGGGLVQPGGSLRLSCAASGYIYSAYCMGWFRQAPGKERVGVAAISIGGGSTYYADSVKGRFTISQDNSKNTLYLQMNSLRAEDTAVYYCAADVIPTETCLGGSWSGPFGYWGQGTLVTVSS[omitted - human IgG1 Fc]
notes: Humanized VHH fused to human IgG1 Fc; bivalent homodimer; also called humanized form of the Fc fusion protein of antibody No. C27, variant 1
In the case of B5, the midpoint of the response in the experiment with CTLA4-Fc fusion protein [1], the EC50, lay at 0.0742 µg/mL.

B6: huC1v4-tet-Fc (Fc fusion)
chain: QVQLVESGGGLVQPGGSLRLSCAASGYIYSAYCMGWFRQAPGKGLEGVAAIYIGGGSTYYADSVKGRFTISRDNSKNTLYLQMNSLRAEDTAVYYCAADVIPTETCLGGSWSGPFGYWGQGTLVTVSSGSQVQLVESGGGLVQPGGSLRLSCAASGYIYSAYCMGWFRQAPGKGLEGVAAIYIGGGSTYYADSVKGRFTISRDNSKNTLYLQMNSLRAEDTAVYYCAADVIPTETCLGGSWSGPFGYWGQGTLVTVSS[omitted - human IgG1 Fc with changes]
modifications: biotinylated in Example 5.6 (huC1v4-tet-Fc-Biotin)
notes: Two tandem CTLA4 single domain antibodies and one Fc in each chain; also called huC1v4-tet-Fc-Biotin; tetravalent CTLA4 single domain antibody Fc fusion protein
In general, Kd refers to the concentration at which binding is half-saturated. Molecule B6 gave a Kd in experiment [4] of 0.19 nM. Further, the “EC50 (read off the curve)” value was about 100 ng/mL in the experiment with CTLA4-Fc fusion protein [3], about 40 ng/mL with Monkey CTLA4-Fc protein and about 40 ng/mL with CTLA4-Fc fusion protein [7]. Besides, the binding result in experiment [5] and in experiment [6] was “no binding” in each case.

B7: Fc fusion protein of CTLA4 single-domain antibody No. C27 (Fc fusion)
chain: QVQLQESGGGSVQAGGSLRLSCAASGYIYSAYCMGWFRQAPGKERVGVAAISIGGGSTYYADSVKGRFTISQDNAKNTLYLQMNSLKPEDTAMYYCAADVIPTETCLGGSWSGPFGYWGQGTQVTVSSGS[omitted - human IgG1 Fc]
notes: VHH fused to human IgG1 Fc; bivalent homodimer; expressed in HEK293; also called C27-LdFc; unhumanized C27-LdFc
In the experiment with CTLA4-Fc fusion protein [1], B7 registered an EC50 of 0.0676 µg/mL.

B8: Fc fusion protein of CTLA4 single-domain antibody No. C1 (Fc fusion)
chain: QVQLQESGGGSVQAGGSLGLSCAASGYIYSAYCMGWFRQAPGKEREGVAAIYLGGGSTYYADSVKGRFTISQDIAKNTLYLQMNSLKPEDTAMYSCAADVIPTETCLGGSWSGPFGYWGQGTQVTVSSGS[omitted - human IgG1 Fc]
notes: VHH fused to human IgG1 Fc; expressed in HEK293; also called C1-ld-Fc
On to B8, for which the “EC50 (read off the curve)” value with CTLA4-Fc fusion protein [3] was about 80 ng/mL. In the experiment with CTLA4-Fc fusion protein [2], this molecule registered an EC50 of 0.026 µg/mL.
